Results reported in PubChem BioAssay AID1631 (National Center for Advancing Translational Sciences (NCATS), 2009).
The whole screen tested about 260,000 compounds, of which about 890 (0.34%) were called active. This list was built around the results that the source calls inconclusive (neither active nor inactive); the mix of calls is not that of the screen. Calls follow the shape of the dose curve; as a rule, active = well fitted activation curve with a large enough effect; inconclusive = small, poorly fitted or top-dose-only effect; inactive = no such curve, though single readings can be large or run the other way. No potency is given beside an inconclusive call; the fits are too rough.

Target: Pyruvate kinase PKM (Homo sapiens) (UniProt P14618)
Test: qHTS Assay for Activators of Human Muscle isoform 2 Pyruvate Kinase; also: nearly all actives have a fitted effect of over 55% in size
Conditions: purified PKM2, Kinase-Glo ATP luminescence; Potency: activation; activation: at 57.5 µM (top of the series), 0% is enzyme alone, no compound
Summary of the method: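 ATP formation by purified human PK-M2, quantified via coupled luciferase luminescence after 1 h at room temperature with 0.1 mM ADP and 0.5 mM PEP final.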
Potency is read from the fitted curve at half-maximal effect; tags tell the direction and shape of the fitted curve.

Sequence of UniProt P14618 (P14618 whole entry, looked up, canonical isoform): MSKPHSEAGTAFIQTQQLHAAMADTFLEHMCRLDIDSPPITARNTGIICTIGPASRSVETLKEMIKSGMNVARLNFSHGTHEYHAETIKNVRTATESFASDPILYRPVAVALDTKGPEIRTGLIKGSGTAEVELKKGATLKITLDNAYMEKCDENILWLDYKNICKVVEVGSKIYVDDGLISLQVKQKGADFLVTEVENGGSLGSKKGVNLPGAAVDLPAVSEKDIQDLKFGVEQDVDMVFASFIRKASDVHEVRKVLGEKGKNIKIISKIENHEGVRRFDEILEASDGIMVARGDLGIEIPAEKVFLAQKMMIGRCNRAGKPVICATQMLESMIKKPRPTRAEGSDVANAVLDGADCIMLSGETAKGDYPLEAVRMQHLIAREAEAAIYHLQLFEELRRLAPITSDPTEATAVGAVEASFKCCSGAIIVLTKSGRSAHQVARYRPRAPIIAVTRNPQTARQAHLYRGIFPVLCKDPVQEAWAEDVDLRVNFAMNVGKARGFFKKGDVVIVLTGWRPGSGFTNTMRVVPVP

SMILES	Potency
CC(C)c1ccc(-c2noc(C3CCCN(C(=O)c4ccc(F)cc4F)C3)n2)cc1 (stereo unspecified)	inactive
N#Cc1ccc(NC(=S)NCCN2CCOCC2)cc1	inconclusive [rising, single point]
CCOC(=O)C1CCN(C(C(=O)NC2CCCCC2)c2ccc(OC)cc2)CC1 (stereo unspecified)	inactive
Cc1nn(C)cc1CNC(=O)c1cnn2c(C(F)F)cc(C3CC3)nc12	inconclusive [rising, partial curve]
COc1cccc(NC(=O)CSc2nnc(Cc3ccc(OC)c(OC)c3)o2)c1	active: 14.1 µM
Cn1c(SCc2ccccc2)nc2ccsc2c1=O	inconclusive [rising, single point]
Cc1cc(C)cc(C(=O)NCCn2cc(SCC(=O)N3CCOCC3)c3ccccc32)c1	inconclusive [rising, partial curve]
O=S(=O)(c1ccc(Cl)nc1)N1CCc2ccccc21	inconclusive [rising, partial curve]
Cc1ccc(-c2nnn(CC(=O)N(CC(=O)NCc3ccccc3)c3cccc(C)c3C)n2)o1	inconclusive [rising, partial curve, poor fit]
COC(=O)c1ccccc1NCC(=O)c1ccc(OC)cc1	inactive
COc1ccc(CNC(=O)N2CCN(S(=O)(=O)c3ccc(C)cc3C)CC2)cc1	active: 4.47 µM
COc1cc(C(C)=O)ccc1COc1ccc(C(=O)OCC(=O)NC2CCS(=O)(=O)C2)cc1OC (stereo unspecified)	inactive
Cc1onc(-c2c(F)cccc2Cl)c1C(=O)Nc1nnc(C(F)(F)F)s1	inactive
COc1ccc(NC(=O)c2cc(S(=O)(=O)N3CCCCC3)c[nH]2)c(OC)c1	inconclusive [rising, single point]
O=C(COC(=O)CCC(=O)c1cccs1)NCc1ccco1	inconclusive [rising, single point]
CCS(=O)(=O)N1CCN(S(=O)(=O)c2ccc3ccccc3c2)CC1	inconclusive [rising, full curve]
S=C(c1ccc(-c2ccc(Br)cc2)o1)N1CCOCC1	active: 12.6 µM
O=C(NN=C1CCCCC1)c1ccccc1-n1cccc1	inactive
O=C(CCC(=O)c1ccc(Br)cc1)Nc1cccnc1	inconclusive [rising, single point]
CCC1=Nc2cc(C(=O)NCc3ccco3)ccc2Sc2ccc(C)cc21	inconclusive [rising, single point]
Cc1ccc(S(=O)(=O)N2CCN(C(=O)CN3CCc4ccccc4C3)CC2)cc1	inconclusive [rising, single point]
